{
  "source": "the supplement of paper PMC9446081",
  "note": "Hit rate of the full screen: of about 39,000 compounds, about 220 (0.56%) showed activity. Some of the results follow.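 Note: static incubation at 37 °C against the wild-type strain, values averaged over two biological replicates.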",
  "data": [
    {"tested_on": "Escherichia coli K-12 BW25113", "assay": "relative growth (OD600 normalised to plate interquartile mean) (fraction); higher = less growth inhibition, active = 0.2 or less", "conditions": "50 µM; LB; incubation time: overnight (16-24 h)", "values": [
      {"smiles": "CC=Cc1ccc2n(c1=O)C[C@H]1[C@H](CO)[C@@H](C(=O)NCC3CC3)[C@@H]2N1S(=O)(=O)c1cn(C)cn1", "relative growth": "inactive: 1.01"},
      {"smiles": "C[N+](C)(C)CCOC(N)=O", "relative growth": "inactive: 1.15"},
      {"smiles": "COc1ccc(CNC(=O)C[C@@H]2CC[C@H]3[C@H](COc4ccc(NC(=O)C5CC5)cc4C(=O)N3C)O2)cc1", "relative growth": "inactive: 0.989"},
      {"smiles": "CC(=O)N1Cc2cc(C(=O)NCc3cccc(F)c3)nc(-c3cccc(C4=CCCCC4)c3)c2[C@@H]1CCO", "relative growth": "inactive: 0.94"},
      {"smiles": "CO[C@H](CN(C)S(=O)(=O)c1ccc(C)cc1)[C@H](C)CN([C@H](C)CO)S(=O)(=O)c1cccc(Cl)c1", "relative growth": "inactive: 1.03"},
      {"smiles": "C[C@@H]1CN([C@@H](C)CO)C(=O)CCCn2cc(nn2)CO[C@@H]1CN(C)S(=O)(=O)c1ccc(-n2cccn2)cc1", "relative growth": "inactive: 1.01"},
      {"smiles": "CN1CCN(C(=O)C[C@@H]2CC[C@H]3[C@@H](COC[C@H](O)CN3Cc3ccc(Oc4ccccc4)cc3)O2)CC1", "relative growth": "inactive: 0.984"},
      {"smiles": "CCCC[C@@H](C#N)c1ccc(F)cn1", "relative growth": "inactive: 0.996"},
      {"smiles": "C[C@H]1CN([C@@H](C)CO)C(=O)Cc2cc(NC(=O)CCN3CCOCC3)ccc2O[C@H]1CN(C)S(C)(=O)=O", "relative growth": "inactive: 1.01"},
      {"smiles": "Cc1ccc(S(=O)(=O)N(C)C[C@H]2Oc3ccc(NC(=O)Cn4cnnn4)cc3CC(=O)N([C@H](C)CO)C[C@@H]2C)cc1", "relative growth": "inactive: 0.983"},
      {"smiles": "COc1ccc(NC(=O)Nc2ccc3c(c2)C(=O)N([C@H](C)CO)C[C@@H](C)[C@@H](CN(C)C(=O)Cc2ccccc2)OCCCC[C@H](C)O3)cc1", "relative growth": "inactive: 1.04"},
      {"smiles": "CC(C)N1CCN(c2ccc(OCC3COC(Cn4cncn4)(c4ccc(Cl)cc4Cl)O3)cc2)CC1", "note": "(stereo not drawn)", "relative growth": "inactive: 1.03"},
      {"smiles": "C[C@H]1CN([C@@H](C)CO)C(=O)c2cccc(NS(=O)(=O)c3cn(C)cn3)c2O[C@H]1CN(C)Cc1ccccc1", "relative growth": "inactive: 1.02"},
      {"smiles": "COc1ccc(CN(C)C[C@H]2OCCCC[C@H](C)Oc3ccc(NS(=O)(=O)c4ccc(OC)cc4)cc3C(=O)N([C@@H](C)CO)C[C@@H]2C)cc1", "relative growth": "inactive: 1.02"},
      {"smiles": "C[C@H](CO)N1C[C@H](C)[C@H](CN(C)C(=O)Nc2cccc3ccccc23)Oc2c(NC(=O)Nc3ccc(C(F)(F)F)cc3)cccc2C1=O", "relative growth": "inactive: 0.985"},
      {"smiles": "CCCC#Cc1ccc2c(c1)O[C@H](CN(C)S(=O)(=O)c1cccc(OC)c1)[C@@H](C)CN([C@@H](C)CO)S2(=O)=O", "relative growth": "inactive: 1.05"},
      {"smiles": "COc1cccc(-c2cnc3c(c2)C(=O)N([C@H](C)CO)C[C@H](C)[C@H](CN(C)C(=O)Nc2cccc4ccccc24)O3)c1", "relative growth": "inactive: 0.981"},
      {"smiles": "C[C@@H]1CCCCO[C@@H](CN(C)Cc2ccc(C(=O)O)cc2)[C@@H](C)CN([C@H](C)CO)C(=O)c2cc(NC(=O)c3ccccc3)ccc2O1", "relative growth": "inactive: 0.894"},
      {"smiles": "Cc1noc(C)c1S(=O)(=O)N(C)C[C@@H]1Oc2ccc(NC(=O)Cc3ccccc3)cc2CC(=O)N([C@@H](C)CO)C[C@@H]1C", "relative growth": "inactive: 1.01"},
      {"smiles": "COc1ccc(-c2cnc3c(c2)C(=O)N([C@@H](C)CO)C[C@H](C)[C@@H](CN(C)S(=O)(=O)c2ccc(OC)cc2)O3)cc1", "relative growth": "inactive: 1.01"},
      {"smiles": "C[C@@H]1CN([C@H](C)CO)C(=O)c2cccc(NC(=O)C3CCOCC3)c2O[C@@H]1CN(C)Cc1ccccc1", "relative growth": "inactive: 0.972"},
      {"smiles": "C[C@H]1CN([C@@H](C)CO)C(=O)c2cccc(N(C)C)c2O[C@@H]1CN(C)S(C)(=O)=O", "relative growth": "inactive: 0.987"},
      {"smiles": "C[C@H]1CN([C@@H](C)CO)C(=O)c2cc(NC(=O)Nc3cccc4ccccc34)ccc2O[C@@H]1CN(C)Cc1ccc(C(=O)O)cc1", "relative growth": "inactive: 0.981"},
      {"smiles": "C[C@@H]1CN([C@H](C)CO)S(=O)(=O)c2ccc(C#C[C@@H](C)O)cc2O[C@H]1CN(C)C(=O)Cc1ccccn1", "relative growth": "inactive: 0.988"},
      {"smiles": "C[C@@H]1CN([C@H](C)CO)C(=O)c2cc(NC(=O)Cc3cn(C)c4ccccc34)ccc2O[C@@H]1CN(C)Cc1ccc(C(=O)Nc2ccccc2N)cc1", "relative growth": "inactive: 0.996"},
      {"smiles": "CO[C@H]1CN(C)C(=O)c2ccc(NC(=O)C3CC3)cc2OC[C@@H](C)N(C(=O)CN2CCOCC2)C[C@H]1C", "relative growth": "inactive: 1.04"},
      {"smiles": "O=C([O-])CCC(=O)OCC(NC(=O)C(Cl)Cl)C(O)c1ccc([N+](=O)[O-])cc1.[Na+]", "note": "(stereo not drawn)", "relative growth": "active: 0.0517"},
      {"smiles": "C[C@@H]1CN([C@@H](C)CO)S(=O)(=O)c2ccc(C#CC(C)(C)O)cc2O[C@H]1CN(C)C(=O)CN(C)C", "relative growth": "inactive: 0.994"},
      {"smiles": "C[C@@H]1CN([C@@H](C)CO)S(=O)(=O)c2ccc(C#Cc3ccc(F)cc3)cc2O[C@H]1CN(C)C(=O)CN(C)C", "relative growth": "inactive: 0.976"},
      {"smiles": "Cc1noc(C)c1NC(=O)Nc1ccc2c(c1)C(=O)N([C@H](C)CO)C[C@@H](C)[C@H](CN(C)Cc1ccc(Oc3ccccc3)cc1)O2", "relative growth": "inactive: 0.976"},
      {"smiles": "CCC1=NCCO1", "relative growth": "inactive: 0.993"},
      {"smiles": "COc1ccc(NC(=O)Nc2ccc3c(c2)C(=O)N([C@@H](C)CO)C[C@@H](C)[C@H](CN(C)S(=O)(=O)c2cn(C)cn2)O3)cc1", "relative growth": "inactive: 0.988"},
      {"smiles": "COc1ccc(S(=O)(=O)N(C)C[C@H]2Oc3ccc(NC(=O)CCCN(C)C)cc3CC(=O)N([C@@H](C)CO)C[C@@H]2C)cc1", "relative growth": "inactive: 1.02"},
      {"smiles": "Cc1noc(C)c1S(=O)(=O)Nc1ccc2c(c1)C(=O)N([C@@H](C)CO)C[C@H](C)[C@@H](CN(C)C(=O)Nc1ccccc1)OCCCC[C@H](C)O2", "relative growth": "inactive: 0.985"},
      {"smiles": "COc1ccc(NC(=O)Nc2ccc3c(c2)C(=O)N([C@H](C)CO)C[C@H](C)[C@H](CN(C)Cc2ccc4c(c2)OCO4)OCCCC[C@H](C)O3)cc1", "relative growth": "inactive: 0.966"},
      {"smiles": "C[C@@H]1CN([C@@H](C)CO)C(=O)c2cccc(NC(=O)C3CCCCC3)c2O[C@H]1CN(C)Cc1ccc(Cl)c(Cl)c1", "relative growth": "inactive: 0.963"},
      {"smiles": "C[C@H]1CN([C@@H](C)CO)C(=O)c2cc(C#CC3CC3)cnc2O[C@H]1CN(C)S(=O)(=O)c1cccc(F)c1", "relative growth": "inactive: 0.997"},
      {"smiles": "C[C@@H]1CN([C@@H](C)CO)C(=O)Cc2cc(NC(=O)CCC(F)(F)F)ccc2O[C@@H]1CN(C)Cc1ccc(C(F)(F)F)cc1", "relative growth": "inactive: 1.05"}
    ]}
  ]
}
